Experimental data published in publication PMC4336329 (PLoS ONE, 2015).
About 14,000 (4.5%) of roughly 310,000 compounds showed an effect of 50% or more. Effects have a minus sign here. Some of the results follow.

molecular target: human ether-à-go-go-related gene (hERG) potassium channel (human, UniProt Q12809); experiment: primary screen, population patch clamp on CHO cells stably expressing hERG
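Further: peak tail current of the secondary pulse compared with the same well before compound.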

Chain of human ether-à-go-go-related gene (hERG) potassium channel (Q12809 whole entry, looked up): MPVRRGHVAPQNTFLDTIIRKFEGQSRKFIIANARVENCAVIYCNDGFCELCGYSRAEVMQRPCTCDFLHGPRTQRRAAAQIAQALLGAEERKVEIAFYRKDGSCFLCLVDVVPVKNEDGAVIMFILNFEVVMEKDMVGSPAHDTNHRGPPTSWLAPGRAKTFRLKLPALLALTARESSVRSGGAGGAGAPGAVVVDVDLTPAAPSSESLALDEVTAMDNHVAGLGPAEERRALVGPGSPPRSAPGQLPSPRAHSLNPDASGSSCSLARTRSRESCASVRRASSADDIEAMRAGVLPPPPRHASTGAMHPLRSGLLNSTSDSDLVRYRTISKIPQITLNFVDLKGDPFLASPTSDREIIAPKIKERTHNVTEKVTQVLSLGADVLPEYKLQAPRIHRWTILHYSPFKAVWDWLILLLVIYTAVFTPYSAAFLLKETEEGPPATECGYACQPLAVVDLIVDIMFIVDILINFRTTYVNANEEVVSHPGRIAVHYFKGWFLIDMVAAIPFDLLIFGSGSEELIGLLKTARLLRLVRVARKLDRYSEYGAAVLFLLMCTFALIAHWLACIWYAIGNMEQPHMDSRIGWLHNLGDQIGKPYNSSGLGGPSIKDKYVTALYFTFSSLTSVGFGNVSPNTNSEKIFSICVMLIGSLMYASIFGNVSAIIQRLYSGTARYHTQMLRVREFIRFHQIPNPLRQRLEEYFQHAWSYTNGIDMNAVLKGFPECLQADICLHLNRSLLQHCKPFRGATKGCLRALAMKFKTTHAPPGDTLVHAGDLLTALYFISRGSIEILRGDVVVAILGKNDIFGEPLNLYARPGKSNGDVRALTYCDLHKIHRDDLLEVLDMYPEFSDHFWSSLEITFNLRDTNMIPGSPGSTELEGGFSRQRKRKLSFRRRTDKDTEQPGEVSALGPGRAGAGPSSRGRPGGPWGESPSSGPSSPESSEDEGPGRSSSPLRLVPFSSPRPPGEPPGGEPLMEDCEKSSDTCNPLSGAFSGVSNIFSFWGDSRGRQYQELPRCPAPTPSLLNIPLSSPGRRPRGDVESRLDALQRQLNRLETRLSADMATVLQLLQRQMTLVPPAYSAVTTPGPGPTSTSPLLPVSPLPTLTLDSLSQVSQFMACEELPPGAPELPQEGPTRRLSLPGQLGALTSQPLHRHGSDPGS

Row | Compound | hERG current change (%, negative = inhibition) at 10uM [%]
1 | CCOC(=O)C(=CNc1ccc(Cl)cn1)C(=O)OCC | 19
2 | O=C(O)CCc1ccc(-c2ccc(Cl)cc2)n1NC(=O)c1ccc(O)cc1 | 48.2
3 | COc1ccc(N(CC(=O)Nc2ccccc2C(F)(F)F)C2=NC3CS(=O)(=O)CC3S2)cc1 (centres unmarked) | -25.1
4 | Cc1cc(-c2cccs2)nc(-n2cccc2)n1 | 12
5 | CC(=O)Nc1cc(NC(C)=O)cc(C(=O)OC(C)C(=O)Nc2ccc(S(=O)(=O)N3CCCC3)cc2)c1 (centres unmarked) | -9.78
6 | CCCCc1ccc(NC(=S)N2CCN(C)CC2)cc1 | -33.8
7 | COc1ccccc1C(N)=S | 17
8 | CCc1cc(=O)oc2cc(OCC(=O)N3CCC(C(N)=O)CC3)ccc12 | 9.13
9 | CCOc1cc2c(C#N)c(N(CC)CC)nc(N)c2c(N)n1 | -14.8
10 | CCOC(=O)N1CCN(c2c(NCCCOC(C)C)c(=O)c2=O)CC1 | -19.7
11 | O=C(Nc1cccc([N+](=O)[O-])c1)C1CC(=O)N(Cc2ccccc2)C1 (centres unmarked) | -53.2
12 | O=C(NNc1c(Cl)cncc1Cl)c1sccc1Cl | 4.01
13 | CN(C)C(CNC(=O)c1cccs1)c1cccnc1 (centres unmarked) | 18.7
14 | COc1ccc(CC(=O)NCc2ccc(-n3cccc3)cc2)cc1OC | -6.68
15 | CCOC(=O)c1ccc(NS(=O)(=O)c2ccc3c(c2)n(C)c(=O)n3C)cc1 | 11.9
16 | CC(Sc1nnnn1-c1ccccc1)C(=O)Nc1ccc(Cl)cn1 (centres unmarked) | -54.2
17 | COc1cccc(-c2cc(C(=O)N3CCN(C(=O)c4ccco4)CC3)[nH]n2)c1 | -16.2
18 | COc1ccc(S(=O)(=O)N(CCC(N)=O)Cc2ccco2)cc1OC | 9.51
19 | CCOC(=O)C1C(=O)NC(SCC(N)=O)=C(C#N)C1c1ccccc1OCC (centres unmarked) | 6.84
20 | CCCOc1ccc(-c2nnc(-c3cccs3)o2)cc1 | 6.65
21 | COc1cccc(NC(=S)C(C#N)=C2N(C)c3ccccc3N2C)c1 | 4.88
22 | O=[N+]([O-])c1ccc(Cl)c(/C=N/Nc2nc(N3CCOCC3)nc(N3CCOCC3)n2)c1 | 8.25

Row | Compound | hERG current change (%, negative = inhibition) at 10uM [%]
23 | C=C(C)CC1(NC(C)c2ccccc2)CCCCC1 (centres unmarked) | 4
24 | CC(C)[C@H](NC(=O)N1CC(=O)Nc2ccccc21)C(=O)N[C@@H](C(=O)O)c1ccccc1 | 13.3
25 | Cc1[nH]c(-c2ccco2)nc1C(=O)O | -10.7
26 | Cc1cc(C)nc(N/N=C/c2ccc([N+](=O)[O-])o2)n1 | 2.14
27 | O=C(CSc1ccc(Cl)cc1)Nc1nnc(-c2ccco2)o1 | -12.2
28 | C=CCOc1cccc(CNCc2cccnc2)c1.Cl | 21
29 | CCOc1cc(N2CCOCC2)c(OCC)cc1NC(=O)[C@H](C)N1C(=O)C2CC=CCC2C1=O (some centres unmarked) | 3.46
30 | CSCCC(NS(=O)(=O)c1ccccc1F)C(=O)NCc1ccncc1 (centres unmarked) | 10.9
31 | O=c1c2ccccc2nnn1CSc1ccccc1 | -8.25
32 | COc1ccc(CNCCNC(=O)c2cccs2)cc1OC.O=C(O)C(=O)O | -35.4
33 | Cn1nc(-c2ccc(Cl)cc2)cc1NC(=O)CSCC(=O)O | 19.9
34 | CCOC(=O)c1cc2occc2n1CC(=O)N1CCN(C(=O)c2ccco2)CC1 | -36.8
35 | COc1ccc(-n2c(Cc3cccn3C)nnc2SCC(=O)N2CCOCC2)cc1 | 4.84
36 | CC(C)N(C(=O)CSc1nnc(Cn2nnc3ccccc32)n1C)C(C)C | -3.04
37 | CCOP(=O)(OCC)C(Nc1ccccc1)c1cccnc1 (centres unmarked) | 12.3
38 | COc1ccc(C(=O)OCc2cc(C)ccc2C)cc1S(=O)(=O)N1CCCC1 | -14.3
39 | Cc1cc(NC(=O)c2ccc(Cl)c(S(=O)(=O)N3CCCCC3)c2)no1 | 7.19
40 | O=C(CSc1nnnn1-c1ccc(F)cc1)Nc1nc2ccccc2s1 | 14.7
41 | Cl.O=C(OCCN1CCOCC1)c1ccccc1 | 14.6
42 | Cc1cccc(C)c1NC(=O)c1ccc(N2CCCC2=O)cc1 | -13.6
43 | COc1cc(C2C(C(=O)c3ccc(C)o3)=C(O)C(=O)N2Cc2ccccc2)ccc1O (centres unmarked) | 9.1
44 | CSc1ccc(C(=S)N2CCN(C)CC2)cc1 | -30.1
